Consider 22 molecules from ChEMBL document CHEMBL4888484, “Replenishing the malaria drug discovery pipeline: Screening and hit evaluation of the MMV Hit Generation Library 1 (HGL1) against asexual blood stage Plasmodium falciparum ,using a nano luciferase reporter read-out” (2022).

About 540 (0.36%) of roughly 150,000 compounds showed an effect of 50% or more. This is one part of the list.

This assay concerns Plasmodium falciparum. The assay can be described thus: Primary screen in NF54 nanoGlo assay, in single point, at 2uM, 72h; a lower Z score goes with more inhibition. The following applies: timepoint 72 hour. It counts as functional, Erythrocyte.
Take `COc1ccc(F)cc1-c1c(-c2ccccc2)ncn1CCc1cnccn1`: the “% Inhibition” value is -9% and the Z score turned out to be 0.85.

Regarding `COc1ccc(-c2n[nH]c(C3CC3)c2NC(=O)c2ccc(OC)c(OC)c2)c(OC)c1`, the “% Inhibition” value is -3% and the Z score came to 0.56.

`N#CCOc1cc(OCC#N)c(Cl)cc1Cl`: the “% Inhibition” value was -16% and the Z score was 3.01.

Regarding `O[C@H]1CN(Cc2ccc(-n3ccnc3)cc2)CC[C@@H]1c1ccc(F)cc1`, the “% Inhibition” value is recorded as -4% and the Z score is given as 0.51.

With `Cc1cc(S(N)(=O)=O)sc1C(=O)N[C@H]1CCc2ccccc21`, the “% Inhibition” value was -10% and the Z score turned out to be 1.24.

For the molecule `CC(CNC(=O)NC(C)C1CCOCC1)c1cccs1` (centres undefined), the “% Inhibition” value is reported as -13% and the Z score amounted to 1.74.

As to `COCCn1nnc2cc(S(=O)(=O)N3CCC[C@H](C(=O)NC4CC4)C3)ccc21`, the “% Inhibition” value is given as -20% and the Z score turned out to be 3.23.

Turning to `CNC(=O)C[C@H](C)N(C)C(=O)c1cc(C)c(C)[nH]c1=O`, the “% Inhibition” value was -5% and the Z score turned out to be 0.79.

For `Cc1ncccc1Oc1ncnc(N[C@H]2CCS(=O)(=O)C2)c1C`, the “% Inhibition” value is on record as -5% and the Z score is 0.5.

Take `COc1ccc(NS(=O)(=O)c2ccc(N3CCOCC3)c(N)c2)cc1`: the “% Inhibition” value is -4% and the Z score is listed as 0.46.

Take `COc1ccc(CN(CCC(C)C)C[C@H](O)COC(C)(C)C)cc1OC`: the “% Inhibition” value is -5% and the Z score is given as 0.78.

Take `COc1cncc(Br)c1N`: the “% Inhibition” value was -1% and the Z score was determined as 0.11.

As to `COCCNC(=O)c1nn(CCC(C)C)c2c1CN(C(=O)c1cc(C)nn1C)CC2`, the “% Inhibition” value is recorded as -1% and the Z score stood at 0.08.

As for `CCCn1cc(-c2cc(C(=O)N3CCC[C@@H]3C)c3ccc(C)c(C)c3n2)cn1`, the “% Inhibition” value was determined as 7% and the Z score is reported as -1.05.

For the molecule `COCCCNC(=O)CCn1cnc2c(-c3ccc(F)cc3)noc2c1=O`, the “% Inhibition” value was 0% and the Z score was -0.06.

For the molecule `O=C(O)C[C@@H]1CCN(C(=O)c2ccco2)C[C@@H]1CCN1CCN(c2ccccc2)CC1`, the “% Inhibition” value worked out at 25% and the Z score is on record as -2.87.

For `CC(C)CS(=O)(=O)[C@H]1CCCN(C(=O)NC(c2ccccc2)c2ccccc2)C1`, the “% Inhibition” value is reported as -16% and the Z score is recorded as 2.07.

As to `CS(=O)(=O)N1C[C@H]2CC[C@@H](C1)N(C(=O)c1ccc3[nH]nnc3c1)C2`, the “% Inhibition” value is listed as -7% and the Z score was determined as 1.17.

Consider `Cc1cnc(-n2ncc(C(=O)N3CCCC3)c2C2CC2)nc1-c1cccs1`, for which the “% Inhibition” value is -6% and the Z score was 0.66.

Consider `O=C(Nc1ccc(Cl)cc1)[C@H]1CCCC[C@H]1C(=O)NCc1cc[nH]n1`, for which the “% Inhibition” value is given as -21% and the Z score is given as 2.63.

For `O=C([C@@H]1COc2cc(S(=O)(=O)NCc3ccc4c(c3)OCO4)ccc2O1)N1CCOCC1`, the “% Inhibition” value amounted to 10% and the Z score is given as -1.04.

On to `Cc1cccc([C@@H](NC(=O)c2ccccc2-c2nnn[nH]2)C2CC2)n1`, for which the “% Inhibition” value is listed as -4% and the Z score turned out to be 0.58.
